Data: PubChem BioAssay AID1030 (National Center for Advancing Translational Sciences (NCATS), 2008)
Screen size: about 220,000 compounds; about 16,000 (7.3%) were called active. Inconclusive means that the source gave no clear call. Such entries were picked first, then a sample of the others. Calls come from the whole dose curve; as a rule, active = well fitted inhibition curve with a large enough effect (not every such curve was filed as active); inconclusive = small, poorly fitted or top-dose-only effect, or another doubt; inactive = no such curve, though single readings can be large or run the other way. Potencies of inconclusive entries are left out as doubtful fits.

Target: Aldehyde dehydrogenase 1A1 (Homo sapiens) (UniProt P00352)
Sequence of UniProt P00352 (P00352 whole entry, looked up): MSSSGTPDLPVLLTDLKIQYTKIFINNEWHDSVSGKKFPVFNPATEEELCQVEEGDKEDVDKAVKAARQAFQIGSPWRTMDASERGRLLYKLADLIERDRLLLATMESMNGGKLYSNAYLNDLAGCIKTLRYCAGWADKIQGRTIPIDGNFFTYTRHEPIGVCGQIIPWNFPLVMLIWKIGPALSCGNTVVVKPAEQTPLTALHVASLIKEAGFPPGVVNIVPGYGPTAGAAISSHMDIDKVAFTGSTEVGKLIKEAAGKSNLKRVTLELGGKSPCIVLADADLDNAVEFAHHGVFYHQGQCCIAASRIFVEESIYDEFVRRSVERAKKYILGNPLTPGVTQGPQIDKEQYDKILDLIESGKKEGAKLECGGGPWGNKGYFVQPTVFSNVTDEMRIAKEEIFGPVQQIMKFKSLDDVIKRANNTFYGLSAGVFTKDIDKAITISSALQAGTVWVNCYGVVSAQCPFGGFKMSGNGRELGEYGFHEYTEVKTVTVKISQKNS
Assay: qHTS Assay for Inhibitors of Aldehyde Dehydrogenase 1 (ALDH1A1)
Settings: Purified ALDH1A1, NADH fluorescence, propionaldehyde substrate; series mostly up to 75.3 µM
Potency is the fitted concentration of half-maximal effect; tags give direction and shape of the fitted curve.

Compound | Potency
Cc1[nH]n(-c2ccccc2)c(=O)c1N=Nc1cccc(S(=O)(=O)N2CCOCC2)c1 | inactive
CCCOc1ccc(N/C=C/C(=O)C(C)(C)C)cc1 | inconclusive [inhibitor, partial curve]
CC(=O)N1CCC(=NNS(=O)(=O)c2cccc([N+](=O)[O-])c2)CC1 | active: 11.2 µM
CN1CCN(S(=O)(=O)c2ccc3c4c(cccc24)C(=O)N3)CC1 | inconclusive [inhibitor, single point]
Cc1ccc(NC(=S)N(CCCN2CCN(C)CC2)Cc2cccs2)cc1 | inconclusive [inhibitor, single point]
O=C(OCc1nc(-c2ccccc2)oc1COC(=O)c1ccco1)c1ccco1 | inconclusive [inhibitor, single point]
COc1cc(C)nc(N2CCCC(C(=O)Nc3cc(Cl)ccc3OC)C2)n1 (stereo unspecified) | inconclusive [inhibitor, partial curve]
O=C(c1ccccc1Sc1cccc2ccccc12)N1CCOCC1 | inconclusive [inhibitor, single point]
COc1ccc(NC(=O)CC2CCCC2)cc1S(=O)(=O)N1CCCCC1 | inactive
COC(=O)c1sc2ncn(-n3c(C)ccc3C)c(=O)c2c1C | inactive
CN(Cc1ccccc1)C(=O)c1cccc(NC(=O)c2ccco2)c1 | inconclusive [inhibitor, single point]
O=C(OCc1cc2ccccc2[nH]c1=O)c1ccccn1 | inconclusive [inhibitor, partial curve]
CC(C)C(NC(=O)OCc1ccccc1)C(=O)OCC(=O)NCc1ccco1 (stereo unspecified) | inconclusive [inhibitor, single point]
O=c1c(Cc2c(F)cccc2Cl)c(O)ccn1C1CCCCCC1 | inactive
Cc1cc(N2CCN(C(c3ccccc3)c3ccccc3)CC2)n2ncnc2n1 | inconclusive [inhibitor, partial curve]
O=[N+]([O-])c1ccccc1S(=O)(=O)N1CCN(CC2CC3C=CC2C3)CC1 (stereo unspecified) | active: 14.1 µM
COc1ccc(CCNC(=O)COC(=O)COc2ccc(C#N)cc2)cc1 | inactive
C=CCN1C(=O)/C(=C\c2ccc(Cl)cc2)N=C1SCC(=O)NCCC | inconclusive [inhibitor, full curve]
CSc1ccc(S(=O)(=O)Nc2c(C)cccc2C)cc1 | inconclusive [inhibitor, partial curve]
Cc1ccc(NC(=O)C2Cc3ccccc3CN2C(=O)c2ccccc2)cc1Cl (stereo unspecified) | inactive
COCCN(C(=O)c1ccccc1OC1CCN(S(C)(=O)=O)CC1)C(C)C | inactive
CCN1CCCC1CNC(=O)C1c2ccccc2C(=O)N(CCOC)C1c1ccc(F)cc1 (stereo unspecified) | inconclusive [inhibitor, single point]
CCNC(=O)NC(C(=O)OC)C12CC3CC(CC(C3)C1)C2 (stereo unspecified) | inconclusive [inhibitor, single point]

Compound | Potency
O=C(N/N=C/c1ccc(F)c(F)c1)c1cc2c(s1)-c1ccccc1CC2 | inconclusive [inhibitor, partial curve]
CCn1c(SCC(=O)O)nnc1-c1ccccc1OC | inconclusive [inhibitor, single point]
C1CN(CC2CCN(c3nc4nonc4nc3N3CCSCC3)CC2)CCO1 | inconclusive [inhibitor, partial curve]
Cc1nn(C)c(C(=O)NNC(=O)Nc2cccc(C(F)(F)F)c2)c1Cl | inconclusive [inhibitor, single point]
Cc1cc(=O)oc2c1ccc1oc(/C(=N/O)c3ccccc3)c(C)c12 | inconclusive [inhibitor, single point]
COc1ccccc1NS(=O)(=O)c1ccc(C(=O)OCC(=O)NCc2ccco2)cc1 | inactive
Cc1cccc(N2CCN(C(=S)c3ccccc3)CC2)c1 | inconclusive [inhibitor, single point]
Cc1cccnc1Nc1nc(-c2ccc(O)cc2O)cs1 | inconclusive [inhibitor, single point]
Cc1nc(-c2ccccc2)sc1-c1ccnn1C | inconclusive [inhibitor, partial curve]
CCN(C(=O)CSc1nnc(C)n1-c1ccccc1)C1CCS(=O)(=O)C1 (stereo unspecified) | inactive
COc1ccc2cnnc(SCC(=O)Nc3ccc(C(=O)O)cc3)c2c1OC | inconclusive [inhibitor, single point]
O=C(CCN1CCN(c2ccccc2)CC1)N/N=C/c1ccc(O)c(O)c1O | active: 3.98 µM
Cc1ccc2oc(-c3cccc(NC(=O)c4ccc(Br)o4)c3C)nc2c1 | inactive
O=C1c2ccccc2C(=O)N1CCC(=O)N1CCCc2ccccc21 | inconclusive [inhibitor, single point]
Cc1ccc(-n2c(C)cc(/C=N/Nc3ccc([N+](=O)[O-])cn3)c2C)c(C)c1 | active: 3.55 µM
Cc1cccc2cc(CN(C(=O)c3cccs3)c3ccccc3)c(=O)[nH]c12 | inconclusive [inhibitor, partial curve]
O=C(NNC(=S)NC(=O)c1cccnc1)c1ccc(Cl)cc1 | inconclusive [inhibitor, single point]
C/C(=N\NC(=O)COc1ccc(C(C)(C)C)cc1)c1cc2ccccc2o1 | inactive
Cc1cccc(C(CC(=O)NCc2ccco2)c2ccccc2)c1O (stereo unspecified) | inactive
COc1ccc(C(C(=O)NC2CCCCC2)N(C(=O)CCl)c2cccc(Cl)c2)cc1 (stereo unspecified) | inactive
COc1cc(OC)cc(C(=O)N[C@H](C(=O)OCC(=O)NC(=O)c2cccn2C)C(C)C)c1 | inactive
COc1cc(C2CC(=O)c3c([nH]c(C(=O)OCCOC(C)C)c3C)C2)cc(OC)c1OC (stereo unspecified) | inconclusive [inhibitor, partial curve]
O=[N+]([O-])c1cc(-c2ccc(C(=S)N3CCOCC3)o2)ccc1Cl | active: 3.98 µM
